Test results: publication PMC12820563
The list shows a part of the results. The list includes weakly bound sequences.

target: T1, MBP-FoxP3dN (UniProt Q99JB6); assay: PD-seq (MBP pull-down with sequencing); conditions: 20 mM Tris-HCl pH 7.5, 100 mM NaCl, 1.5 mM MgCl2, 0.4 uM protein, 0.1 uM dsDNA library, 30 min, room temperature, amylose pull-down; high values mean tight binding; double strand, one strand shown
T1 sequence: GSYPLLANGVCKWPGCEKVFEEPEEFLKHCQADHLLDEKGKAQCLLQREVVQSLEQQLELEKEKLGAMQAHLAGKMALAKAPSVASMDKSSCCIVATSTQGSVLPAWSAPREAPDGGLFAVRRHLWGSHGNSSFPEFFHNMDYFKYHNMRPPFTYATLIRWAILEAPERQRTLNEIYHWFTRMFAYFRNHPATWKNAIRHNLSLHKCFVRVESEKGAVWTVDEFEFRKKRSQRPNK

| Sequence | binding signal (RPM ratio (pull-down/input)) |
| --- | --- |
| GATGATTGTTCTCCCAGCTGATGAATTTTAGCCCTCGAGTAAACAAATTTTCCTAATCTTTCTGTTCAAGCGCCATCTAC | 0.446 |
| GATGATTGTTCTCCCAGCTGATGAATTCACAGACTCGAGTAAACAAATTTTCCTAATCTTTCTGTTCAAGCGCCATCTAC | 0.226 |
| GATGATTGTTCTCCCAGCTGATGAATTCGTAAAATCGAGTAAACAAATTTTCCTAATCTTTCTGTTCAAGCGCCATCTAC | 0.21 |
| GATGATTGTTCTCCCAGCTGATGAATTTGCGGTATCGAGTAAACAAATTTTCCTAATCTTTCTGTTCAAGCGCCATCTAC | 1.46 |
| GATGATTGTTCTCCCAGCTGATGAATTGTCCATCTCGAGTAAACAAATTTTCCTAATCTTTCTGTTCAAGCGCCATCTAC | 0.502 |
| GATGATTGTTCTCCCAGCTGATGAATTGTCTCAATCGAGTAAACAAATTTTCCTAATCTTTCTGTTCAAGCGCCATCTAC | 0.399 |
| GATGATTGTTCTCCCAGCTGATGAATTTGCGATGTCGAGTAAACAAATTTTCCTAATCTTTCTGTTCAAGCGCCATCTAC | 1.64 |
| GATGATTGTTCTCCCAGCTGATGAATTTCAATACTCGAGTAAACAAATTTTCCTAATCTTTCTGTTCAAGCGCCATCTAC | 0.528 |
| GATGATTGTTCTCCCAGCTGATGAATTAGGGCACTCGAGTAAACAAATTTTCCTAATCTTTCTGTTCAAGCGCCATCTAC | 0.441 |
| GATGATTGTTCTCCCAGCTGATGAATTTGCCGAATCGAGTAAACAAATTTTCCTAATCTTTCTGTTCAAGCGCCATCTAC | 0.346 |
| GATGATTGTTCTCCCAGCTGATGAATTATCCCTGTCGAGTAAACAAATTTTCCTAATCTTTCTGTTCAAGCGCCATCTAC | 0.285 |
| GATGATTGTTCTCCCAGCTGATGAATTAAGCACATCGAGTAAACAAATTTTCCTAATCTTTCTGTTCAAGCGCCATCTAC | 0.847 |
| GATGATTGTTCTCCCAGCTGATGAATTCAGACATTCGAGTAAACAAATTTTCCTAATCTTTCTGTTCAAGCGCCATCTAC | 0.869 |
| GATGATTGTTCTCCCAGCTGATGAATTGTTTCAATCGAGTAAACAAATTTTCCTAATCTTTCTGTTCAAGCGCCATCTAC | 0.612 |
| GATGATTGTTCTCCCAGCTGATGAATTTAGTGGGTCGAGTAAACAAATTTTCCTAATCTTTCTGTTCAAGCGCCATCTAC | 1.06 |
| GATGATTGTTCTCCCAGCTGATGAATTAAGAGCATCGAGTAAACAAATTTTCCTAATCTTTCTGTTCAAGCGCCATCTAC | 0.765 |

| Sequence | binding signal (RPM ratio (pull-down/input)) |
| --- | --- |
| GATGATTGTTCTCCCAGCTGATGAATTCTGATCGTCGAGTAAACAAATTTTCCTAATCTTTCTGTTCAAGCGCCATCTAC | 0.434 |
| GATGATTGTTCTCCCAGCTGATGAATTAAGATGATCGAGTAAACAAATTTTCCTAATCTTTCTGTTCAAGCGCCATCTAC | 0.542 |
| GATGATTGTTCTCCCAGCTGATGAATTACTGATGTCGAGTAAACAAATTTTCCTAATCTTTCTGTTCAAGCGCCATCTAC | 0.487 |
| GATGATTGTTCTCCCAGCTGATGAATTCCTAAGGTCGAGTAAACAAATTTTCCTAATCTTTCTGTTCAAGCGCCATCTAC | 0.198 |
| GATGATTGTTCTCCCAGCTGATGAATTCTGCGGATCGAGTAAACAAATTTTCCTAATCTTTCTGTTCAAGCGCCATCTAC | 0.373 |
| GATGATTGTTCTCCCAGCTGATGAATTAGATGGTTCGAGTAAACAAATTTTCCTAATCTTTCTGTTCAAGCGCCATCTAC | 1.41 |
| GATGATTGTTCTCCCAGCTGATGAATTAGCTAAGTCGAGTAAACAAATTTTCCTAATCTTTCTGTTCAAGCGCCATCTAC | 0.231 |
| GATGATTGTTCTCCCAGCTGATGAATTGCTCTTTTCGAGTAAACAAATTTTCCTAATCTTTCTGTTCAAGCGCCATCTAC | 0.627 |
| GATGATTGTTCTCCCAGCTGATGAATTGTATGGGTCGAGTAAACAAATTTTCCTAATCTTTCTGTTCAAGCGCCATCTAC | 1.19 |
| GATGATTGTTCTCCCAGCTGATGAATTATCGTCCTCGAGTAAACAAATTTTCCTAATCTTTCTGTTCAAGCGCCATCTAC | 0.481 |
| GATGATTGTTCTCCCAGCTGATGAATTCGCTCTCTCGAGTAAACAAATTTTCCTAATCTTTCTGTTCAAGCGCCATCTAC | 0.344 |
| GATGATTGTTCTCCCAGCTGATGAATTGCCAATGTCGAGTAAACAAATTTTCCTAATCTTTCTGTTCAAGCGCCATCTAC | 0.545 |
| GATGATTGTTCTCCCAGCTGATGAATTTTATAGCTCGAGTAAACAAATTTTCCTAATCTTTCTGTTCAAGCGCCATCTAC | 0.545 |
| GATGATTGTTCTCCCAGCTGATGAATTAAGTTCGTCGAGTAAACAAATTTTCCTAATCTTTCTGTTCAAGCGCCATCTAC | 0.524 |
| GATGATTGTTCTCCCAGCTGATGAATTGTAGTCTTCGAGTAAACAAATTTTCCTAATCTTTCTGTTCAAGCGCCATCTAC | 1.11 |
